By % Inhibition is commonly meant the relative decrease from the control value, in per cent.

Out of some 150,000 compounds screened, about 540 (0.36%) showed an effect of 50% or more. Some of the results follow.

The record followed here is ChEMBL document CHEMBL4888484, “Replenishing the malaria drug discovery pipeline: Screening and hit evaluation of the MMV Hit Generation Library 1 (HGL1) against asexual blood stage Plasmodium falciparum ,using a nano luciferase reporter read-out” (2022).

For this assay, the system named is Plasmodium falciparum. The assay is described as follows: Primary screen in NF54 nanoGlo assay, in single point, at 2uM, 72h; a lower Z score goes with more inhibition. Particulars: timepoint 72 hour. In kind it is functional, Erythrocyte.
In the case of `O[C@H]1[C@H](NCc2ccccc2)[C@H]2CO[C@H](O2)[C@@H]1N1CCC(Cc2ccccc2)CC1`, the “% Inhibition” value is -8% and the Z score worked out at 1.22.
The corresponding values for `COc1ccccc1-c1noc(-c2oc(C)nc2C)n1` are 13% and -1.5.
As to `CCOCc1nnc(NCC2(C)CCOCC2)o1`, the “% Inhibition” value is listed as -2% and the Z score was found to be 0.26.
For `CN(Cc1cc(C[C@@H]2C[C@H](NC3CCOCC3)C2(C)C)no1)c1ccccc1`, the “% Inhibition” value is -13% and the Z score was 1.69.
With `COc1ccc(-c2nc(C)cc(C)c2CNS(=O)(=O)c2cccs2)cc1`, the “% Inhibition” value turned out to be 1% and the Z score was -0.14.
Turning to `CCOC(=O)N1CC(c2ccccc2)C(c2ncon2)C1` (configuration not stated), the “% Inhibition” value was 0% and the Z score is 0.05.
For `O=S1(=O)CC[C@H](n2nc(-c3ccco3)cc2NS(=O)(=O)c2ccc(F)cc2)C1`, the “% Inhibition” value was -3% and the Z score came to 0.53.
Regarding `CN(Cc1ccnc(N(C)C)n1)C[C@H]1CCCCO1`, the “% Inhibition” value is on record as -1% and the Z score is given as 0.12.
The corresponding values for `Cc1n[nH]c(C)c1CNCCc1cn2c(n1)CCCC2` are -5% and 0.53.
The corresponding values for `O=C(Cn1nnc2ccccc21)N1CCOC2CCCCC21` (configuration not stated) are 5% and -0.56.
Regarding `FCCOc1ccc(-c2ccc(O[C@H]3CCOC3)cc2)nc1`, the “% Inhibition” value came to 4% and the Z score is -0.48.
Consider `COc1cc2c(cc1OC)[C@@H](c1c(F)cccc1Cl)N(C(=O)COCc1ccccc1)CC2`, for which the “% Inhibition” value is listed as -4% and the Z score is 0.41.
Turning to `CCc1n[nH]c(-c2cccc(Cl)c2)c1NC(=O)OCc1ccccc1`, the “% Inhibition” value is on record as -6% and the Z score amounted to 0.54.
In the same order, the values of `CC[C@@H](C(=O)Nc1nccs1)N1CCC(n2c(=O)[nH]c3ccccc32)CC1` are -9% and 0.83.
The corresponding values for `O=C(Nc1ccc(F)c(NC(=O)C2CCCCC2)c1)C1CCC1` are 1% and -0.23.
As to `COc1ccc(C2=CC(c3ccc(F)cc3O)=N/C2=N\c2[nH]c(-c3ccc(F)cc3O)cc2-c2ccc(OC)cc2)cc1`, the “% Inhibition” value turned out to be 4% and the Z score is on record as -0.56.
Consider `O=C(NC1CCOC1C1CC1)c1ccc(S(=O)(=O)N2CCCCCC2)cc1` (configuration not stated), for which the “% Inhibition” value is given as -17% and the Z score is given as 3.11.
In the same order, the values of `COCC1(N(C)C(=O)c2cccc3[nH]c(C(F)F)nc23)CCC1` are 8% and -1.49.
In the same order, the values of `COC1CCN(C(=O)CN2CCCCCC2)CC1` are -16% and 1.62.
In the same order, the values of `Cc1cc(NC(=O)Cc2csc(NC(=O)c3ncccn3)n2)no1` are 3% and -0.29.
With `CC(C)CC[C@@]1(C2CCNCC2)NC(=O)N(Cc2ccoc2)C1=O`, the “% Inhibition” value is listed as -1% and the Z score is listed as 0.17.
With `O=C(NCC1CC1)Nc1nc2ccc(Br)cn2n1`, the “% Inhibition” value is recorded as -28% and the Z score was determined as 4.53.
As for `CCCc1cc(C(=O)NC2(CO)CN(C(=O)OC(C)(C)C)C2)no1`, the “% Inhibition” value is recorded as -9% and the Z score is listed as 1.76.
The corresponding values for `O=C(c1ccc[nH]1)N1CCN[C@H](c2cccc(Cl)c2)C1` are -16% and 1.94.
The corresponding values for `COc1ncccc1CN1CCC[C@H]1C(F)(F)F` are -44% and 5.15.
The corresponding values for `CC(=O)N(C)c1cccc(NC2CC(C)OC2=O)c1` (configuration not stated) are 7% and -0.99.
As for `CC(=O)c1cc(CN2CCC([C@@H](O)CCc3ccccc3)CC2)n(C)c1`, the “% Inhibition” value was -6% and the Z score amounted to 1.05.
Take `O=C(NC1CCCC1)C12CC1CCN2S(=O)(=O)c1ccccc1` (configuration not stated): the “% Inhibition” value is on record as 9% and the Z score was -1.02.
Consider `CC(C)c1ccc(C(=O)N2CCC[C@@H]2CN2CCCCC2)s1`, for which the “% Inhibition” value is -2% and the Z score is 0.24.
The corresponding values for `O=C1CC[C@H](CN2CC(c3ccccc3)(c3ccccc3)CCC2=O)N1` are -11% and 1.25.
For the compound `Cc1nsc(NC(=O)N(C)C2CCOCC2)n1`, the “% Inhibition” value is given as -9% and the Z score was 0.99.
The corresponding values for `Cc1ccc(=O)n(CCc2ccc(F)c(F)c2)n1` are -11% and 1.79.
Consider `Cc1c(C(=O)O)cnn1-c1nccc(-c2ccc3c(c2)OCO3)n1`, for which the “% Inhibition” value was -7% and the Z score was 1.24.
The corresponding values for `Cc1cc(NC(=O)NCc2c(C)cc(CO)cc2C)cc(C)n1` are 5% and -0.95.
The corresponding values for `COc1ccccc1-c1cc2c(=O)n(CC#N)ccn2n1` are -5% and 0.92.
In the same order, the values of `COc1cccc(S(=O)(=O)N(C)[C@@H](C)C(C)(C)O)c1OC` are -6% and 1.01.
Consider `Cc1cc(=O)[nH]c(CNc2ncnc3c2CCC3)n1`, for which the “% Inhibition” value is on record as -18% and the Z score came out at 3.38.
In the same order, the values of `CCn1nnc2c(N3CCCC3)ncnc21` are -6% and 0.98.
In the same order, the values of `O=C1[C@H](Cc2ccccc2)NC2(CCN(S(=O)(=O)c3ccccc3)CC2)N1Cc1ccco1` are -16% and 1.91.
The corresponding values for `C[C@H]1CCc2nc3ccccc3c(C(=O)N3CCN(c4nccs4)CC3)c2C1` are -8% and 0.9.
For `Cc1c(Cl)cccc1S(=O)(=O)N1CCC(Oc2ccccn2)CC1`, the “% Inhibition” value is recorded as 0% and the Z score is on record as -0.01.
Regarding `c1cn(Cc2ccc3c(c2)OCO3)c(-c2ccc(-c3cc[nH]n3)o2)n1`, the “% Inhibition” value is -8% and the Z score is 1.56.
For the compound `O=C1O[C@@H](CNS(=O)(=O)c2cccnc2)CN1c1ccccc1`, the “% Inhibition” value was -12% and the Z score was 1.38.
Take `Cc1ccc(Cc2noc(-c3cccc(OC(C)C)n3)n2)cn1`: the “% Inhibition” value is given as -13% and the Z score stood at 1.68.
In the same order, the values of `O=C(O)c1csc(S(=O)(=O)N(CC2CCC2)c2ccccc2)c1` are 25% and -2.84.
`CC1CCCC(c2ncnc3c2cnn3-c2ccccc2)C1` (configuration not stated): the “% Inhibition” value is recorded as -4% and the Z score is 0.55.
Turning to `O=C(N[C@H]1CCOC[C@@H]1Oc1ccccn1)c1cn[nH]c1`, the “% Inhibition” value is -5% and the Z score is 0.83.
In the same order, the values of `Cc1ncnc(OCC2CCN(CCN3CCCC3=O)CC2)c1C` are -2% and 0.24.
The corresponding values for `O=C(C1CCCC1)N1CCN(Cc2ccc(-n3ccnc3)cc2)CC1` are -19% and 3.73.
In the case of `CCCCNC(=O)N1CCCS(=O)(=O)CC1`, the “% Inhibition” value is listed as -10% and the Z score worked out at 1.53.
`Cn1nc(CCN[C@H](c2ccccc2)c2ncc[nH]2)c2ccccc21`: the “% Inhibition” value turned out to be 1% and the Z score is reported as -0.1.
Take `COCCNCCOc1ccccc1Cl`: the “% Inhibition” value came out at 5% and the Z score is recorded as -0.61.
Consider `Cc1nc2ccccc2n1CC1CCCN1C(=O)C1CCc2cccnc21` (configuration not stated), for which the “% Inhibition” value amounted to 32% and the Z score is -4.57.
The corresponding values for `CCc1ncc(S(=O)(=O)N2CCCC2(C)C)s1` are -7% and 1.15.
On to `CC(C)(C)NCCCCOc1ccccc1Cl`, for which the “% Inhibition” value is -6% and the Z score is given as 1.16.
The corresponding values for `N#Cc1cnn(-c2nncc3ccccc23)c1N` are 28% and -3.2.
